This is one part of the list. The main result of the screen is listed elsewhere. These columns were measured beside it and carry no call.

Holding throughout (assay): Primary Screen for Target Class Profiling of Small Molecule Inhibitors of Methyltransferases
The target in test [1] is Glycine N-methyltransferase (Homo sapiens) (UniProt Q14749). The note with it: purified enzyme, MTase-Glo SAH luminescence; measured here: GNMT inhibition; at 40 µM; stronger effect = lower value. An outline of the steps: (§1)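 Each enzyme was reacted with SAM and its substrate, with compounds tested once at 40 uM; SAH formed was read by MTase-Glo luminescence.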
Test [2] deals with Guanidinoacetate N-methyltransferase (Homo sapiens) (UniProt Q14353). The note with it: purified enzyme, MTase-Glo SAH luminescence; measured here: GAMT inhibition; at 40 µM; stronger effect = lower value. In outline: as §1
Test [3] has as its target Histamine N-methyltransferase (Homo sapiens) (UniProt P50135). The note with it: purified enzyme, MTase-Glo SAH luminescence; measured here: HNMT inhibition; at 40 µM; stronger effect = lower value. In outline: as §1
The target in test [4] is Nicotinamide N-methyltransferase (Homo sapiens) (UniProt P40261). The note with it: purified enzyme, MTase-Glo SAH luminescence; measured here: NNMT inhibition; at 40 µM; stronger effect = lower value. An outline of the steps: as §1
The target in test [5] is Phenylethanolamine N-methyltransferase (Homo sapiens) (UniProt P11086). The settings on record: purified enzyme, MTase-Glo SAH luminescence; measured here: PNMT inhibition; at 40 µM; stronger effect = lower value. An outline of the steps:
as §1
On the % scale 0 is the no-effect control and ±100 the full control effect.

For the molecule `OC[C@H]1O[C@@H](n2cnc3c(NC4CCCC4)ncnc32)[C@H](O)[C@@H]1O`, the activity change, negative = inhibition in test [1] was -3.64%; in test [2] it was 6.88%; in test [3] it was -2.37%; in test [4], -3.83%; in test [5] it was 8.55%.

As to `CCC(C)NC(=O)c1ccc2c(=O)n(CCC(C)C)c3nn(CC(=O)N(C)c4ccccc4)c(=O)n3c2c1` (stereo not given), the activity change, negative = inhibition was -0.231% in test [1]; 2.33% in test [2]; -0.299% in test [3]; -7.19% in test [4]; -1.78% in test [5].

As for `CC(C)CCn1c(=O)c2ccc(C(=O)NC3CCCC3)cc2n2c(=O)n(Cc3ccccc3)nc12`, the activity change, negative = inhibition in test [1] was found to be 5.23%; in test [2], 1.38%; in test [3] it was 5.26%; in test [4] it was 3.81%; in test [5], 9.52%.

For `Cc1ccc(Cn2c(=O)c3ccccc3n3c(CCC(=O)N4CCN(c5ccccc5)CC4)nnc23)cc1`, the activity change, negative = inhibition in test [1] was -9.87%; in test [2], 6.11%; in test [3], 1.88%; in test [4], -7.71%; in test [5], -6.35%.

As to `CCC(C)NC(=O)c1ccc2c(=O)n(C)c3nnc(SCC(=O)Nc4ccc(C)cc4C)n3c2c1` (stereo not given), the activity change, negative = inhibition in test [1] was 1%; in test [2], -0.96%; in test [3] it was -9.23%; in test [4], -6.88%; in test [5] it was -3.97%.

Regarding `CCc1ccc(C2c3cccn3-c3sc4c(c3CN2C(=O)Nc2ccc(OC)c(OC)c2)CCCC4)cc1` (stereo not given), the activity change, negative = inhibition in test [1] is -6.35%; in test [2], 1.1%; in test [3], 1.49%; in test [4], -11.7%; in test [5] it was -2.08%.

With `CC1(C(=O)NC2CCCCCC2)Cn2nc(-c3cccs3)cc2C(=O)N1Cc1ccccc1` (stereo not given), the activity change, negative = inhibition in test [1] was 4.93%; in test [2] it was 4.94%; in test [3] it was 10.1%; in test [4], 6.1%; in test [5], 2.21%.

Take `CC(C)(N)c1ccc(-c2nc3ccccc3nc2-c2ccccc2)cc1`: the activity change, negative = inhibition in test [1] was -5.81%; in test [2] it was 8.14%; in test [3], 6.27%; in test [4], -11.7%; in test [5], -3%.

`CC1(C(=O)NC2CCCCCC2)Cn2nc(C3CC3)cc2C(=O)N1Cc1ccccc1Br` (stereo not given): the activity change, negative = inhibition in test [1] came to 3.67%; in test [2], 0.995%; in test [3] it was 7.15%; in test [4], 2.34%; in test [5] it was 2.65%.

In the case of `C[N+](C)(C)CC=O`, the activity change, negative = inhibition was 4.64% in test [1]; 8.6% in test [2]; 4.92% in test [3]; -8.47% in test [4]; 1.45% in test [5].

With `O=C(Nc1ccccc1)N1CCC(OCc2noc(C3CCCO3)n2)CC1` (stereo not given), the activity change, negative = inhibition is -0.989% in test [1]; 0.147% in test [2]; 1.71% in test [3]; 4.53% in test [4]; -0.295% in test [5].

Turning to `COc1ccc(Nc2cc(C)c3cc(NC(=O)c4cc(OC)cc(OC)c4)ccc3n2)cc1`, the activity change, negative = inhibition was -14.4% in test [2], -24.8% in test [4] and -4.47% in test [5].

In the case of `CCOc1ccc(NC(=O)c2ncn3c2C(=O)N(C2CC2)C(C)(C(=O)NCc2ccc(F)cc2)C3)cc1` (stereo not given), the activity change, negative = inhibition in test [1] is -8.05%; in test [2], 0.252%; in test [3], -2.49%; in test [4] it was -2.54%; in test [5] it was -7.5%.

For `CC(C)CCN1CCNC(=O)C1CC(=O)NCc1ccc(O)cc1O` (stereo not given), the activity change, negative = inhibition in test [1] is -4.79%; in test [2] it was -0.943%; in test [3], -3.39%; in test [4], -0.137%; in test [5] it was -3.24%.

For the molecule `CN1C[C@H]2CN(C(=O)c3ccc(C(F)(F)F)cc3)CCN2C1=O`, the activity change, negative = inhibition in test [1] was -0.523%; in test [2] it was 2.91%; in test [3], 1.25%; in test [4] it was 2.97%; in test [5], 17.9%.

Consider `Cc1cccc(C(=O)N2CCN(c3cc(C(F)(F)F)nc(C)n3)CC2)c1`, for which the activity change, negative = inhibition in test [1] was -7.59%; in test [2], -10.7%; in test [3], -4.5%; in test [4] it was -10.6%; in test [5], -16.1%.

As for `Cc1ccc(NC(=O)Cn2nc3n(CCCOC(C)C)c(=O)c4ccccc4n3c2=O)cc1`, the activity change, negative = inhibition was 2.35% in test [1]; 4.4% in test [2]; 1.68% in test [3]; 3.28% in test [4]; 3.21% in test [5].

As for `COc1cc(C(C)=O)ccc1O[C@@H]1O[C@H](CO[C@@H]2OC[C@@H](O)[C@H](O)[C@H]2O)[C@@H](O)[C@H](O)[C@H]1O`, the activity change, negative = inhibition is 2.06% in test [1]; 0.89% in test [2]; 9.06% in test [3]; -11.4% in test [4]; -4.82% in test [5].

`CC(C)CNC(=O)c1ccc2c(=O)n(CC(C)C)c3nnc(SCC(=O)NC(C)(C)C)n3c2c1`: the activity change, negative = inhibition is 1.76% in test [1]; 0% in test [2]; 8.54% in test [3]; -7.43% in test [4]; 2.38% in test [5].

As to `CC1(C)CCCC2(C)C(CO)C3CCC2C31` (stereo not given), the activity change, negative = inhibition is 3.35% in test [1]; 7.74% in test [2]; 11.3% in test [3]; -6.6% in test [4]; 4.48% in test [5].

Take `Cc1ccccc1NC(=O)Cn1nc2n(CCC(C)C)c(=O)c3ccc(C(=O)NCC(C)C)cc3n2c1=O`: the activity change, negative = inhibition in test [1] is -5.05%; in test [2] it was -5.55%; in test [3] it was -3.56%; in test [4], -7.79%; in test [5], -8.13%.

For `Cc1ccccc1Cn1nc2n(Cc3ccc(F)cc3)c(=O)c3ccccc3n2c1=O`, the activity change, negative = inhibition in test [1] is 6.79%; in test [2], 1.42%; in test [3], 6.86%; in test [4] it was 7.05%; in test [5], 7.22%.

With `O=C(CCn1ccc2cc(S(=O)(=O)N3CCCCC3)ccc21)NCc1cccc(Cl)c1`, the activity change, negative = inhibition was -4.85% in test [1]; -0.098% in test [2]; -4.54% in test [3]; -16.2% in test [4]; -2.53% in test [5].

For `COC(=O)CCC(=O)N1CCOC(CCCC(C)C)C1` (stereo not given), the activity change, negative = inhibition is -0.794% in test [1]; -1.63% in test [2]; -0.035% in test [3]; -4.68% in test [4]; -3.19% in test [5].

Regarding `COc1ccccc1CNC(=O)C1(C)Cn2c(cc3ccccc32)C(=O)N1CCc1ccc(OC)c(OC)c1` (stereo not given), the activity change, negative = inhibition in test [1] was -1.02%; in test [2], 2.96%; in test [3], 4.84%; in test [4], -5.25%; in test [5] it was 0.807%.

For the molecule `C=CC(C)(O)CC[C@@H]1[C@@]2(C)CCCC(C)(C)C2CC[C@@]1(C)O` (stereo not given in full), the figures for the activity change, negative = inhibition in test [1] and in test [3] were -6.79% and -3.05%, respectively.

For `COc1cccc(C(=O)N2CCC(N3C(=O)c4c(c(C)nn4-c4ccccc4)C3C3CC3)C2)c1` (stereo not given), the activity change, negative = inhibition in test [1] is -12.1%; in test [2], -15.1%; in test [3], -12.5%; in test [4], -30.5%; in test [5] it was -18.1%.

Take `O=C(CCc1nnc2n(CCc3ccccc3)c(=O)c3ccccc3n12)N1CCN(c2ccc(Cl)cc2)CC1`: the activity change, negative = inhibition was -8.59% in test [1]; 0% in test [2]; 4.37% in test [3]; -4.38% in test [4]; -0.672% in test [5].

Take `Cc1nnc2ccc(NC3CCCC3)nn12`: the activity change, negative = inhibition in test [1] was -9.2%; in test [2], -12.5%; in test [3], -9.27%; in test [4], -14.9%; in test [5], -13.8%.

As for `Cc1cccc(NC(=O)N2CCCCC2c2nc(-c3cnccn3)n[nH]2)c1` (stereo not given), the activity change, negative = inhibition in test [1] is -3.83%; in test [2] it was -9.27%; in test [3], -4.3%; in test [4], -8.77%; in test [5] it was -8.81%.

(Values after PubChem BioAssay AID1745853 (National Center for Advancing Translational Sciences (NCATS), 2022).)
